# Test results published in PubChem BioAssay AID1461 (National Center for Advancing Translational Sciences (NCATS), 2008).
# About 2,300 (1%) of roughly 220,000 compounds were called active. Inconclusive means that the source gave no clear call. Such entries were picked first, then a sample of the others. The call rests on the fitted dose curve; in most records, active means well fitted inhibition curve with a large enough effect; inconclusive means small, poorly fitted or top-dose-only effect, or effect the other way; inactive means no such curve, though single readings can be large or run the other way. Potencies of inconclusive entries are left out as doubtful fits.
# Molecular target: Neuropeptide S receptor (Homo sapiens) (UniProt Q6W5P4)
# Test: qHTS Assay for Antagonists of the Neuropeptide S Receptor: cAMP Signal Transduction; further: nearly all actives have a fitted effect of over 50% in size
# Details: CHO-NPSR cells, cAMP TR-FRET, antagonist mode; activity change, negative = inhibition: at 38.3 µM (top of the series) unless noted
# On the % scale 0 is the no-effect control and ±100 the full control effect; potency means the concentration at half of the fitted maximal effect; tags describe the fitted curve by direction and shape.
# Sequence of UniProt Q6W5P4 (Q6W5P4 whole entry, looked up): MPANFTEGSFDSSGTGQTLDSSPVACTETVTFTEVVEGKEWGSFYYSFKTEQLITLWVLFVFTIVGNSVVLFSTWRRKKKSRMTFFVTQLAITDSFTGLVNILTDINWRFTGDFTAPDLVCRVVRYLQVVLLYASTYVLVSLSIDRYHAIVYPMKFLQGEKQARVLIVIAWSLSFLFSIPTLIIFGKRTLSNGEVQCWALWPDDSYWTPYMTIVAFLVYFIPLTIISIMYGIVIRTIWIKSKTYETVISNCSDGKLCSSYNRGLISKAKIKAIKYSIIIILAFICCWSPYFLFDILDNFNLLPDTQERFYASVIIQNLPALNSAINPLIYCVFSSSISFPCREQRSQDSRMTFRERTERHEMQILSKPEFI
SMILES,Potency,"activity change, negative = inhibition"
Cc1ccc(S(=O)(=O)c2nc(Nc3ccccc3C#N)sc2Cl)cc1,"inconclusive [inhibitor, single point]",–
COc1ccc(C2Nc3ccccc3C(=O)N2Cc2ccccc2)cc1COc1ccccn1 (stereo not drawn),"inconclusive [inhibitor, single point]",–
Cc1ccc2c(C)c(C(=O)Nc3c(C)n(C)n(-c4ccccc4)c3=O)oc2c1C,inactive,–
COCCn1c(SCC(=O)Nc2nnc(C)s2)nnc1-c1cc2ccccc2cc1O,"inconclusive [activator, single point]",–
COc1ccc(-c2c(S(=O)(=O)c3ccccc3)cnn2-c2ccccc2)cc1,"inconclusive [inhibitor, single point]",–
Fc1ccc(N2CCN(c3nc(CN4CCOCC4)nc4scc(-c5ccccc5)c34)CC2)cc1,"inconclusive [inhibitor, single point]",–
CC(C)c1cc(C(=O)OCC(=O)NC(=O)NCc2ccco2)c(O)c(C(C)C)c1,"inconclusive [inhibitor, single point]",–
COc1ccc(CCNC(=O)CSc2nncn2N)cc1OC,inactive,–
O=C(Nc1ccc(F)cc1F)c1sccc1SCc1cccc(C(F)(F)F)c1,"inconclusive [inhibitor, single point]",–
N#Cc1c(C(F)(F)F)cc(-c2cccs2)nc1SCc1cccnc1,"inconclusive [inhibitor, partial curve]",–
Nc1cc(N)nc(SCC(=O)NCC2CCCO2)n1 (stereo not drawn),inactive,–
CCOC(=O)Cn1c(=O)n(Cc2ccco2)c(=O)c2ccc(C(=O)NCCc3ccccc3)cc21,"inconclusive [inhibitor, partial curve]",–
O=[N+]([O-])c1cccc2cn[nH]c12,"inconclusive [inhibitor, single point]",–
Cc1ccc(S(=O)(=O)N2C(=O)C(c3ccccc3)SC2=Nc2ccccc2)cc1 (stereo not drawn),inactive,–
Cc1ccc(NC(=O)CN(c2cc(C)cc(C)c2)S(=O)(=O)c2c(C)noc2C)nc1,"inconclusive [inhibitor, partial curve, poor fit]",–
O=C(c1cc(-c2cccnc2)nc2ccc(Br)cc12)N1CCN(c2ncccn2)CC1,"inconclusive [activator, partial curve, poor fit]",–
O=S(=O)(Nc1ccccc1)c1ccc(Oc2ncc(C(F)(F)F)cc2Cl)cc1,"inconclusive [inhibitor, single point]",–
CCOC(=O)Cn1nnnc1C(CC)N(Cc1cccs1)Cc1cc2ccc(OC)cc2[nH]c1=O (stereo not drawn),"inconclusive [inhibitor, partial curve, poor fit]",–
CCOC(=O)CCS(=O)(=O)c1nc(-c2ccccc2)cc(C(F)(F)F)n1,active: 7.94 µM,–
NC12CCc3c(no[n+]3[O-])C1(O)CC(c1ccccc1)=[N+]2[O-] (stereo not drawn),inactive,–
O=C(O)CCCN1C(=O)/C(=C/c2ccc(-c3nc4ccccc4s3)o2)SC1=S,"inconclusive [inhibitor, full curve, poor fit]",–
COCCCN=C(c1ccco1)n1c(=S)nc(-c2ccco2)n(CCCOC)c1=S,"inconclusive [inhibitor, single point]",–
COc1cc([C@@H]2[C@H]3CN(C)CC=C3C(C#N)=C(N)C2(C#N)C#N)cc2c1OCO2,inactive,–

SMILES,Potency,"activity change, negative = inhibition"
Cc1cccc(NC(=S)NC(NC(=O)c2ccco2)C(Cl)(Cl)Cl)c1 (stereo not drawn),"inconclusive [inhibitor, single point]",–
O=Cc1cc2ccccc2nc1SCc1ccc(Cl)c(Cl)c1,"inconclusive [activator, full curve]",–
Cc1ccc(Nc2cc(C)nn2-c2nc(C)cc(=O)[nH]2)cc1,"inconclusive [inhibitor, partial curve]",–
Cc1ccc(NC(=O)Cn2c(=O)oc3ccccc32)cc1,inactive,–
Cc1ccc(/C=N/Nc2ccnc3cc(Cl)ccc23)c(C)c1,"inconclusive [inhibitor, single point]",–
CCNc1nc2c(c(=O)[nH]c(=O)n2C)n1CC(C)C,inactive,–
Cc1cc(CN2CCOCC2)c(O)c(C2(C)CCCCC2)c1,"inconclusive [inhibitor, single point]",–
COc1ccc(S(=O)(=O)N2c3ccccc3OCC2c2ccccc2)cc1 (stereo not drawn),inactive,–
Fc1ccc(COc2ccc(Br)cc2CNCc2ccncc2)cc1,"inconclusive [inhibitor, single point]",–
COc1ccc(-c2cc3nc4c(c(N5CCC6(CC5)OCCO6)n3n2)CCC4)cc1,"inconclusive [activator, partial curve]",–
Cn1c(N)c(S(=O)(=O)c2ccc(Br)cc2)c2nc3ccccc3nc21,"inconclusive [inhibitor, single point]",–
O=C(Nc1cccc(Cl)c1)c1cc(N=Nc2ccc([N+](=O)[O-])cc2Cl)ccc1O,"inconclusive [activator, partial curve]",–
Cc1sc(NC(=S)NC(=O)c2cccs2)nc1-c1ccc(CC(C)C)cc1,active: 12.6 µM,–
O=C(Nc1ccccc1C(=O)N/N=C/c1ccco1)c1ccccc1,inactive,–
Cc1nc(S/C(=C/c2ccc(-c3cc(Cl)ccc3C)o2)C(=O)O)n[nH]1,–,inactive: 13.6% [at 7.67 µM]
CNC(=S)NNC(=O)c1cccn(Cc2ccc(Cl)cc2Cl)c1=O,inactive,–
Cc1ccc([N+](=O)[O-])cc1N=Nc1c(-c2ccc([N+](=O)[O-])cc2)[nH]n(C(N)=S)c1=O,active: 10 µM,–
COc1cc(/C=N/Nc2nn3cnnc3c3ccccc23)cc(OC)c1OC,"inconclusive [inhibitor, partial curve, poor fit]",–
CCn1c(C)nc2cc(-c3nnc(-c4c(-c5ccccc5)noc4C)o3)ccc21,"inconclusive [inhibitor, single point]",–
COc1cccc2sc(Nc3nc4ccc(NC(C)=O)cc4s3)nc12,inactive,–
O=[N+]([O-])c1ccc(C2Oc3ccccc3C3CC(c4ccccc4)=NN32)s1 (stereo not drawn),"inconclusive [inhibitor, single point]",–
Cn1c2c(c(=O)n(C)c1=O)C(C(F)(F)F)(C(F)(F)F)N=C(CCC1CCCCC1)N2,"inconclusive [inhibitor, single point]",–
CC(C)C(C(=O)Nc1sc2c(c1C#N)CCCCC2)N1C(=O)c2ccccc2C1=O (stereo not drawn),"inconclusive [inhibitor, single point]",–

SMILES,Potency,"activity change, negative = inhibition"
CN1C(=O)/C(=C\c2cc(N=Nc3ccccc3)ccc2O)SC1=S,"inconclusive [inhibitor, single point]",–
C=CCNC(=O)C1CCN(S(C)(=O)=O)CC1,"inconclusive [inhibitor, single point]",–
O=[N+]([O-])c1ccc(CSc2ncnc3c2ncn3[C@@H]2O[C@H](CO)[C@H](O)[C@H]2O)cc1,inactive,–
CCOc1ccccc1NC(=S)N(CCCN1CCOCC1)Cc1cn(C)c2ccccc12,inactive,–
Nc1c(C(=O)c2ccccc2)sc2nsc(SCCN3CCCC3)c12,"inconclusive [activator, single point]",–
COc1ccc(OCCNS(=O)(=O)c2ccc3oc4ccccc4c3c2)cc1,inactive,–
Cc1ccc(C(=O)Nc2cccc(-c3cnc4ccccc4n3)c2)cc1,"inconclusive [inhibitor, single point]",–
Cc1ccc(-c2csc(C(C#N)=C3CCCC3)n2)cc1,"inconclusive [inhibitor, single point]",–
CCC(=O)Nc1nonc1-c1nc2ccccc2n1CCC(C)C,"inconclusive [inhibitor, partial curve]",–
Cn1c(=O)cc(SCC(=O)N2CCN(Cc3ccc4c(c3)OCO4)CC2)c2ccccc21,"inconclusive [inhibitor, single point]",–
O=C(NC1CCCCC1)N1CCC(c2nc(-c3ccc(S(=O)(=O)N4CCCC4)cc3)no2)CC1,"inconclusive [inhibitor, partial curve]",–
N#Cc1ccccc1Sc1ccccc1N,inactive,–
O=C(c1ccccc1)c1nn(-c2ccc(Cl)cc2)c(=O)cc1C(F)(F)F,"inconclusive [inhibitor, single point]",–
CCOC(=O)c1cnc(-n2nc(C)cc2C)nc1NC1CCCC1,active: 1.26 µM,–
CCOC(=O)CCC(NC(=O)CCCCCCCC(=O)NC(CCC(=O)OCC)C(=O)OCC)C(=O)OCC (stereo not drawn),inactive,–
CCN(CC)c1nc(N)c2c(N)nc3c(c2c1C#N)CC(c1ccccc1)O3 (stereo not drawn),"inconclusive [inhibitor, partial curve]",–
O=C(Nc1ccc2oc(-c3cccnc3)nc2c1)c1ccc2c(c1)OCCO2,"inconclusive [activator, single point]",–
Nc1cc(N2CCCCC2)c(Cl)cc1[N+](=O)[O-],inactive,–
COc1ccccc1N(CC(=O)Nc1c(C)cccc1C)S(C)(=O)=O,"inconclusive [inhibitor, single point]",–
C=C(C)COc1ccc(-c2nc(N)ncc2-c2ccc(OC)cc2)c(O)c1,"inconclusive [inhibitor, partial curve, poor fit]",–
CSc1nc(SCC(=O)O)c2sc3nc(-c4ccccc4)c4c(c3c2n1)CCC4,"inconclusive [activator, partial curve]",–
CN1C[C@@H]2C(c3ccc(Cl)nc3)C3(c4cccnc4)CC2(C3)[C@H]1c1ccccc1 (stereo partly drawn),"inconclusive [inhibitor, full curve, poor fit]",–
